Results on 19 variants are retold here after the RNAGym collection of RNA variant scans (doi:10.1073/pnas.2313332121).

B1: TPR 5TU (parent)
chain: GGAUCUUCUCGAUCUAACAAAAAAGACAAAUCUGCCACAAAGCUUGAGAGCAUCUUCGGAUGCAGAGGCGGCAGCCUUCGGUGGCGCGAUAGCGCCAACGUUCUCAACUAUGACACGCAAAACGCGUGCUCCGUUGAAUGGAGUUUAUCAUG

This sample is rich in variants without activity.

This data set covers variants of B1. Description: polymerase ribozyme fitness, log enrichment relative to wild type (log ratio); higher = more active; in vitro selection for triplet polymerase activity. The gist of the method:
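Only genotypes with ≥10 input reads and ≥1 read per output were kept after Illumina sequencing of input and output libraries. These libraries were PCR-built, transcribed mutants of each subunit of a heterodimeric triplet polymerase ribozyme, each put through one triplicate in vitro selection round with frozen incubation at −7 °C, gel excision of extended constructs, streptavidin-bead capture and RT-PCR. Fitness is a logarithmic ratio of genotype enrichment to wild-type enrichment, from inverse-variance-weighted replicate averages, with the logarithm in base 2.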
Regarding GGAUCUUCUCGAUCCAACAUAAAAGACAAAUCUGCCACAAUGCUUGAGAGCAUCUUGGGAUGCAGAGGCGGCAGCCUUCGGUGGCGCGAUAGCGCCAGCGUUCUCAACUAUGACACGCAAAACGCGUGCUCCGUUGAAUGGAGUUUAUCAUG [U15C A20U A41U C57G A98G], the “polymerase ribozyme fitness (log ratio)” value was -1.74. As to GGAUCUUCUCGAUCAAACAAAAAAAACAAAUCUGCCACAAACCUUGAGAGCAUCUUCGGAUGCAGAGGCGGCAGCCUUAGGUGGCGCGAUAGCGCCAACGUUCUCAACUAUGACACGCAAAACGCGUGCUCCGUUGAAUGGAGUUUAUCAUG [U15A G25A G42C C79A], the “polymerase ribozyme fitness (log ratio)” value is at most -4.2.

Regarding GGAUCUUCUCGAUCCAACAAACAAGACAAAUCUGCAACAAAGCUUGAGAGCAUCUUCGGAUGCAGAGGCGGCAGCCUUCGGUGGCGCGAUAGCGCCAACGUUCUCGACUAUGACACGCAAAACGCGUGCUCCGUUGAAUGGAAUUUAUCAUG [U15C A22C C36A A106G G143A], the “polymerase ribozyme fitness (log ratio)” value was at most -4.2. The figure for GGAUCUUCUCGAUCCAACAAAAAAGACAAAUCUGCUACAAAGCUUGAGAGCAUCUUCGGAUGCAGUGGCGGCAUCGUUCGGUGGCGCGAUAGCGCCAACGUUCUCAACUAUGACACGCAAAACGCGUGCUCCGUUGAAUGAAGUUUAUCAUG [U15C C36U A66U G74U C76G G141A] is at most -4.2. The result for GGAUCUUCUCGAUCCAACAAAAAAGACAAAUCUGCUACAAAGCUUGAGAGCCUCAUCGGAUGCGGAGGCGGCUGCCUUCGGUGGCGGGAUAGCGCCAACGUUCUCAACUAUGACACGCAAAACGCGUGCUCCGUUGAAUGGAGUCUAUCAUG [U15C C36U A52C U55A A64G A73U C87G U145C] reads at most -4.2; that for GGAUCUUCUCGAUCAAACAAAAAAGACAAAUCUGCCACAAAGCUUGAGAUCAUCUUCGGAUGCAGAGGCGGCAGCCUUCGGUGGCACGAUAGCGCCAACGUUCUCAACUAUGAUACGCAAAACGCGUGCUCCGUUGAAUGGAGUUUAUCAUG [U15A G50U G86A C114U], -3.13. As to GGAUCUUCUCGAUCCAACAAAAACGACAAAUCUGCCACAAAGCUUGAGAGCAUCAUCGGAUGCAGAGGGGGCAGCCUUCGGUGGCGCGAUAGCGCCAACGUUCUCAACUAUGACACGCAAAACGCGUGCUCGGUAGAAUGGAGUUUAUCAUG [U15C A24C U55A C69G C132G U135A], the “polymerase ribozyme fitness (log ratio)” value is at most -4.2. The figure for GGAUCUUCUCGAUCCAACAAAAAAGACAAAGCUGCCACAAAGCUUGAGAGCAUCUACGGAUGCAGAGGCGGCGGCCUUCGGUGGCGCGAUAGCGUCAACUUUCUCAACUAUGCCACGCAAAACGCGUGCUCCGUUGAAUGGAGGUUAUCAUG [U15C U31G U56A A73G C95U G100U A113C U144G] is at most -4.2; for GGAUCUUCUCGAUCCAACAAAAAAGACAAAUCUGCCACAAAGCUUGAGAGCAUCUUCGGUUGCCGAGGCGGCAGCCUUUGGUGGCGCGAGAGCGCUAACGUUCUCAACUAUGACACGCAAAAUGCGUGCUCCGUUGAAUGGAGUUUAUCAUG [U15C A60U A64C C79U U90G C96U C123U] it is at most -4.2. The figure for GGAUCUUCUCGAUCAAACAAAAAAGACAAAUAUGCCACAAAGCUUGAGAGCAUCUGCUGAUGCAGAGGCGGCAGCCUUCGGUGUCGCGAUAGCGCCAACGUUCUCAAUUAUGACACGCAAAACGCGUGCUCCGUUGAAGGGAGUUUAUCAUG [U15A C32A U56G G58U G84U C108U U139G] is at most -4.2; for GGAUCUUCUCGAUCAAACAAAAAAGAUAAAUCUGCCACAUAGCUAGAGAGCAUCUUCGGAGGCAGAGGCGGCAGCCUUGGGUGGCGAGAUGGCGCCAACGUUCUCAACUAUGACACGCAAAACGCGUGCUCCGUUGAAUGGAGUUUAUCAUG [U15A C27U A40U U45A U61G C79G C87A A91G] it is at most -4.2.

GGAUCUUCUCGAUCCAACAAAAAAGACAAAUCUGCCACAAAGCGUGAGAGCAACUUCGGAUGCAGAGGCGGCAGCCUUCGGUGGUGCGAUAGCGCCAACGUUCUCAACUAUGUCACGCAAAACGCAUGCUCCCUUGAAUGGAGUUGAUCAUG [U15C U44G U53A C85U A113U G126A G133C U146G]: the “polymerase ribozyme fitness (log ratio)” value was at most -4.2. The result for GGAUCUUCUCGAUCAAACAAAAAAGACAAAUCUGCCACAAAGCUUGAGAGCAUCUUCGGAUGCAGAGGCGGCAGCCUUCGGGGGGGCGAUAGCGCCAACGUUCUCAACUCUGACACGCAAAACGCGUGCUCCGUUGAAUGGAGUUUAUCAUG [U15A U82G C85G A110C] reads at most -4.2.

As for GGAUCUUCUCGAUCAAACAAAAAAGACAAAUCUGCCACAAAGCUUGAGAUCAUCUUCGGAUGCAGAGGCGGCAGCCUUCGGUGGCGCGAUAGCGGCAACGUUCUCAACUAUGACACGCAAAACGCGUGCUCGGUUGAAUGGAGUUUAUCAUG [U15A G50U C95G C132G], the “polymerase ribozyme fitness (log ratio)” value is at most -4.2. The figure for GGAUCUUCUCGAUCCAACAAAAAAGACAAAUCUGCCACAAAGCUUGAGAGCAUCUUCGGAUGCAGAGGCGGCAGCCUUCGGUGGCGCGAUAGGGCCAACGUUCUCAACUAUGACACGCAAAACGCGUGCUCCGUUGAAUGGAGUUUAUCAUG [U15C C93G] is -2.27; for GGAUCUUCUCGAUCCAACAAAAAAGACCAAUCUGCCACAGAGAUUGAGAGCAUCUUCGGAUGCAGAGGCGGCAGCCUUCGGUGUCGCGAUAGCGCCAACGUUCUCAACUAUGACACGCAAAACGAGUGCUCCGUUGAAUGGAGUUUAUCAUG [U15C A28C A40G C43A G84U C125A] it is at most -4.2; for GGAUCUUCUCGAUCCAACAAAAAAGACAAAUCUGCCACAAAGCUUGAGAGCAUCUUCGGAUGCAGAGGCGGCAGCCUUAGGUGGCGCGAUAGCGCUAACGCUCUCAACUAUGACACGCAAAACGCUUGCUCCGUUGAAUGGAGUUUAUCAUG [U15C C79A C96U U101C G126U] it is at most -4.2. Take GGAUCUUCUCGAUCAAACAAAAAAGACAAAUCUGCCACAAAGCGUGAGAGCAUCUUCGGAUGCAGAGGCGGCAGCCUUCCGUGGCGCGAUAGCGCCAACGUUCUCAACUAUGGCACGCAAAACGCGUGCUCCGUUGAAUGGAGUUCAUCAUG [U15A U44G G80C A113G U146C]: the “polymerase ribozyme fitness (log ratio)” value was at most -4.2.

Consider GGAUCUUCUCGAUCCAACAAAAUAGACAAAUCUGCCACAAAGCUUGAGAGCAUCUUCGGAUGCUGAGGCGGCAGCCUUCGGAGGUGCGAUAGCGCCAACGUUCUCAACUAUGACACGCAAAACGUGUGCUCCGUUGAAUGGAGUUUAUUAUG [U15C A23U A64U U82A C85U C125U C149U], for which the “polymerase ribozyme fitness (log ratio)” value was at most -4.2.
